# Experimental data from PubChem BioAssay AID1745845 (National Center for Advancing Translational Sciences (NCATS), 2022).
# Hit rate of the full screen: of about 360,000 compounds, about 2,600 (0.72%) were called active. This list was built around the results that the source calls inconclusive (neither active nor inactive); the mix of calls is not that of the screen. Calls come from the whole dose curve; as a rule, active = well fitted inhibition curve with a large enough effect; inconclusive = small, poorly fitted or top-dose-only effect; inactive = no such curve, though single readings can be large or run the other way. Where the call is inconclusive, the potency comes from a doubtful curve fit.
# Experiment: Primary qHTS for Inhibitors of ATXN expression; note: nearly all actives have a fitted effect of over 55% in size
# Conditions: HEK-293 ATXN2-luciferase reporter, luminescence, 24 h; series mostly up to 57 µM
# Summary of the method: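 ATXN2-luciferase reporter cells (luciferase flanked by upstream and downstream ATXN2 gene portions) were treated 24 h at 37 °C with compounds at up to 57 uM. SteadyGlo luminescence gave expression; GF-AFC fluorescence gave viability.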
# Potency is the fitted concentration of half-maximal effect; tags give direction and shape of the fitted curve.
row,Compound,Potency
1,COc1ccc(NCc2nc3ccccc3n2CCOc2ccc(C)cc2)cc1,"inconclusive: 37.7 µM [inhibitor, single point]"
2,Cc1ccc([C@H]2C[C@@H](n3cc(C4CC4)nn3)[C@H](O)CN2CC2CCCCC2)cc1,"inconclusive: 35.5 µM [inhibitor, partial curve, poor fit]"
3,Cc1cccc(-c2noc(CNC(=O)c3ccc(C)cc3C)n2)c1,"inconclusive: 15.8 µM [inhibitor, partial curve, poor fit]"
4,CC(=O)Nc1cc(-c2ccc(N3CCN(C)CC3)cc2)cn2c(-c3cccc(C(C)=O)c3)cnc12,inactive
5,O=C(OCCC12CC3CC(CC(C3)C1)C2)c1ccc(NCc2cc(O)ccc2O)cc1,"inconclusive: 7.94 µM [inhibitor, full curve, poor fit]"
6,COc1ccc(S(=O)(=O)N(C(=O)c2ccco2)c2cc3sc(=O)oc3c3ccccc23)cc1,"inconclusive: 35.5 µM [inhibitor, partial curve, poor fit]"
7,CCC(C)(C)C1CCC2(CC1)NC(=O)N(CC(=O)NCCc1ccc(OC)c(OC)c1)C2=O (centres undefined),inactive
8,COc1cccc(Nc2nc(C(C)N)cs2)n1 (centres undefined),"inconclusive: 17.8 µM [inhibitor, partial curve, poor fit]"
9,N#C/C(=C\c1ccc(OCc2ccc(C(=O)O)cc2)cc1)C(=O)N1CCOCC1,active: 8.91 µM
10,Nc1c(C(=O)Nc2ccccc2Cl)nnn1Cc1cccc(Cl)c1,"inconclusive: 2.24 µM [inhibitor, full curve]"
11,O=C(CN1C(=O)NC2(CCCCCC2)C1=O)Nc1ccc2c(c1)CCC2,"inconclusive: 22.4 µM [inhibitor, single point]"
12,CC1CCCCN1C(=O)CSc1nc2ccccc2nc1Cc1ccc(Cl)cc1 (centres undefined),"inconclusive: 14.1 µM [inhibitor, partial curve, poor fit]"
13,CCCCCC(=O)N[C@@H](c1ccccc1)[C@@H](O)C(=O)O[C@H]1C[C@@]2(O)[C@@H](OC(=O)c3ccccc3)C3[C@](C)(C(=O)[C@H](OC(C)=O)C(=C1C)C2(C)C)[C@@H](O)C[C@H]1OC[C@@]31OC(C)=O (some centres undefined),"inconclusive: 6.31 µM [inhibitor, partial curve, poor fit]"
14,O=C(NCC1CCCO1)C(c1cccs1)N(Cc1cccs1)C(=O)c1ccc(-c2ccccc2)[nH]1 (centres undefined),"inconclusive: 39.8 µM [inhibitor, single point]"
15,Cc1ccccc1Cn1cc(S(=O)(=O)c2ccc(C(C)C)cc2)c(=O)c2cc3c(cc21)OCO3,inactive
16,O=Cc1[nH]c2ccccc2c1N(C(=O)CCl)c1ccc([N+](=O)[O-])cc1,"inconclusive: 39.8 µM [inhibitor, single point]"
17,COc1ccc(NS(=O)(=O)c2ccc3ccccc3c2)c2ncccc12,inactive
18,Clc1ccc2c(c1)C(C1=NCCN1)c1ccccc1CS2 (centres undefined),"inconclusive: 2 µM [inhibitor, partial curve, poor fit]"
19,C[C@@H]1CN([C@@H](C)CO)C(=O)c2cc(C#CC3CCCCC3)cnc2O[C@@H]1CN(C)S(=O)(=O)c1ccc(F)cc1,"inconclusive: 39.8 µM [inhibitor, single point]"
20,CC1(C)Cc2c(c(N3CCOCC3)nc3sc4c(NN)ncnc4c23)CS1,"inconclusive: 31.6 µM [inhibitor, single point]"

row,Compound,Potency
1,CC(Oc1ccc(Cl)cc1Cl)C(=O)Nc1ccc(O)cc1 (centres undefined),"inconclusive: 39.8 µM [inhibitor, single point]"
2,CCOC(=O)N1CCC(N2CCN(c3cc(C)ccc3C)CC2)CC1,inactive
3,CN1CCN(C(=S)c2cn(Cc3ccccc3F)c3ccccc23)CC1,inactive
4,CC1(C)C(=O)N(CC(=O)Nc2ccc(OC(F)(F)F)cc2)c2ccccc21,"inconclusive: 39.8 µM [inhibitor, single point]"
5,COc1ccc(CC(=O)Nc2nc(-c3ccc(F)c(F)c3)cs2)cc1OC,"inconclusive: 14.1 µM [inhibitor, partial curve, poor fit]"
6,Oc1cccc(Nc2nc(-c3ccccc3)nc3ccccc23)c1,"inconclusive: 25.1 µM [inhibitor, single point]"
7,Cc1cc(F)ccc1-c1cc(C(=O)NCc2ccccc2)[nH]n1,inactive
8,COc1ccc(C(NC(C)=O)c2cc(Cl)c3cccnc3c2O)cc1OC (centres undefined),"inconclusive: 10 µM [inhibitor, partial curve, poor fit]"
9,O=C1[C@H]2[C@H](C=CC[C@H]2C(=O)N2CCN(c3ccccc3)CC2)CCN1Cc1ccc(Cl)c(Cl)c1,"inconclusive: 22.4 µM [inhibitor, partial curve, poor fit]"
10,O=C(O)c1cccc(-c2noc(-c3cccc(Cl)c3)n2)c1,"inconclusive: 3.16 µM [inhibitor, single point]"
11,NCCCCCCNS(=O)(=O)c1cccc2c(Cl)cccc12,"inconclusive: 35.5 µM [inhibitor, single point]"
12,CCOc1ccc(NC(=O)CSc2oc(-c3cccs3)nc2S(=O)(=O)c2ccc(Cl)cc2)cc1,inactive
13,COc1ccc(CNc2nc(-c3ccc(OC)c(OC)c3)cc(C(F)(F)F)n2)cc1,inactive
14,COc1cc2c(ccc3cc(OC)c(OC)c(O)c32)cc1O,"inconclusive: 35.5 µM [inhibitor, partial curve, poor fit]"
15,CCOC(=O)c1ccc(NS(=O)(=O)c2cc3c(cc2C)n(C)c(=O)c(=O)n3C)cc1,inactive
16,Cc1ccccc1-c1ccc(C=Nc2c(C)n(C)n(-c3ccccc3)c2=O)o1,"inconclusive: 22.4 µM [inhibitor, single point]"
17,C/C=C(/C)C(=O)OC1CC(C)(C)C[C@H]2C3=CC[C@@H]4[C@@]5(C)CCC(O[C@@H]6O[C@@H](C(=O)O)[C@@H](O)C(O[C@@H]7OC[C@H](O)[C@@H](O)[C@@H]7O[C@@H]7OC(CO)C(O)[C@@H](O)[C@@H]7O)C6O[C@@H]6OC(CO)C(O)C(O)C6O)[C@@](C)(CO)[C@@H]5CC[C@]4(C)[C@]3(C)CC(O)[C@@]12CO (some centres undefined),inactive
18,CCOc1ccc(C(C)NC(=S)NCc2ccc(Cl)cc2)cc1 (centres undefined),"inconclusive: 18.9 µM [inhibitor, partial curve, poor fit]"
19,CCOc1ccc(/C=N/NC(=O)C(=O)N2CCCCCC2)c2ccccc12,"inconclusive: 6.31 µM [inhibitor, partial curve]"
20,CNc1nc2c(N)ncnc2n1[C@H]1O[C@@H](CO)[C@H](O)[C@@H]1O,"inconclusive: 11.2 µM [inhibitor, partial curve, poor fit]"

row,Compound,Potency
1,Cc1ncc([N+](=O)[O-])n1CC(=O)NCCc1ccccc1,"inconclusive: 37.7 µM [inhibitor, single point]"
2,Cc1cc(-c2onc(C)c2C(=O)Oc2ccc(Cl)cc2)no1,"inconclusive: 0.423 µM [inhibitor, partial curve, poor fit]"
3,O=C(N/N=C/c1sc2ccccc2c1O)c1ccccc1,"inconclusive: 2.24 µM [inhibitor, full curve, poor fit]"
4,COc1ccc2cc(C#CC3=CC(=O)C[C@H](c4ccc(F)cc4)C3)ccc2c1,"inconclusive: 28.2 µM [inhibitor, single point]"
5,COc1cc2c(cc1OC)C(C)N(C(=O)c1cc3c(s1)-c1c(C)cccc1OC3)CC2 (centres undefined),"inconclusive: 22.4 µM [inhibitor, single point]"
6,COc1cccc(NC(=O)[C@H](CC(C)C)NC(=O)N2CCn3c2nc2ccccc23)c1,"inconclusive: 22.4 µM [inhibitor, partial curve, poor fit]"
7,COc1ccc(OC)c(N(CC(=O)NCC2CCCO2)S(=O)(=O)c2ccccc2)c1 (centres undefined),inactive
8,COc1ccc(CCCNC(=O)C2Cc3c(-c4cccc(NC(C)=O)c4)ccnc3O2)cc1 (centres undefined),"inconclusive: 14.1 µM [inhibitor, partial curve]"
9,O=C(NCc1ccccc1)C1(CC2CC(c3ccccc3)=NO2)CCNCC1 (centres undefined),"inconclusive: 28.2 µM [inhibitor, single point]"
10,COc1cccc(-c2nc(CS(=O)(=O)CC(=O)NCCc3ccccc3)c(C)o2)c1,inactive
11,CCOc1ccc(-n2c(O)c(/C=N/Nc3nc(C)cc(C)n3)c3ccccc3c2=O)cc1,"inconclusive: 1.68 µM [inhibitor, full curve, poor fit]"
12,COc1cccc(C(C(=O)NC2CCCC2)N(C(=O)c2ccco2)c2ccc(-n3cnnn3)c(C)c2)c1OC (centres undefined),inactive
13,FC(F)(F)c1cc(-c2ccccn2)nc2cc(-c3ccccc3)nn12,"inconclusive: 37.7 µM [inhibitor, single point]"
14,CCn1c(C(=O)N2CCCC(C(=O)NCCc3ccc(C)cc3)C2)cc2sccc21 (centres undefined),"inconclusive: 39.8 µM [inhibitor, single point]"
15,Cc1ccc(S(=O)(=O)N2CCN(CN3C(=O)CC4(CCCC4)C3=O)CC2)cc1,inactive
16,c1ccc2c(c1)c1ccccc1n1c(-c3ccc4c(c3)OCO4)nnc21,"inconclusive: 39.8 µM [inhibitor, partial curve, poor fit]"
17,O=C(NNC(=O)c1cc(-c2ccncc2)nc2ccccc12)c1ccccc1O,"inconclusive: 0.708 µM [inhibitor, partial curve, poor fit]"
18,O=C(CSc1nc2ccc(NC(=O)CSc3nnnn3-c3ccccc3)cc2s1)Nc1ccccc1,"inconclusive: 14.1 µM [inhibitor, partial curve, poor fit]"
19,COc1cccc(C(=O)Nc2nc(-c3ccc(S(=O)(=O)N4CCOCC4)cc3)cs2)c1,active: 15.8 µM
